Data published in PubChem BioAssay AID1476 (National Center for Advancing Translational Sciences (NCATS), 2009).
Hit rate of the full screen: of about 200,000 compounds, about 4,500 (2.2%) were called active. Inconclusive means that the source gave no clear call. Such entries were picked first, then a sample of the others. Calls follow the shape of the dose curve; as a rule, active = well fitted inhibition curve with a large enough effect; inconclusive = small, poorly fitted or top-dose-only effect, or effect the other way; inactive = flat fitted curve, though single readings scatter. A potency beside an inconclusive call is a rough fit, not a confirmed value.

target: Cruzipain (Trypanosoma cruzi) (UniProt P25779); experiment: qHTS Assay for Promiscuous and Specific Inhibitors of Cruzain (without detergent); settings: purified cruzain, Z-FR-AMC fluorescence, no detergent; also: nearly all actives have a fitted effect of over 40% in size;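 as to max response, negative = inhibition: plate controls were enzyme without inhibitor for no effect and buffer without enzyme for full effect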
Procedure, shortened: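 Detergent-free condition (0.00005% Triton X-100) in acetate buffer pH 5.5 with DTT. 1.5 nM enzyme and compound were pre-mixed 15 min, then 2 uM Z-FR-AMC substrate added; reaction progress from fluorescence change between first and third reads (60 s).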
Potency is read from the fitted curve at half-maximal effect; tags tell the direction and shape of the fitted curve.

Chain of UniProt P25779 (P25779 whole entry, looked up): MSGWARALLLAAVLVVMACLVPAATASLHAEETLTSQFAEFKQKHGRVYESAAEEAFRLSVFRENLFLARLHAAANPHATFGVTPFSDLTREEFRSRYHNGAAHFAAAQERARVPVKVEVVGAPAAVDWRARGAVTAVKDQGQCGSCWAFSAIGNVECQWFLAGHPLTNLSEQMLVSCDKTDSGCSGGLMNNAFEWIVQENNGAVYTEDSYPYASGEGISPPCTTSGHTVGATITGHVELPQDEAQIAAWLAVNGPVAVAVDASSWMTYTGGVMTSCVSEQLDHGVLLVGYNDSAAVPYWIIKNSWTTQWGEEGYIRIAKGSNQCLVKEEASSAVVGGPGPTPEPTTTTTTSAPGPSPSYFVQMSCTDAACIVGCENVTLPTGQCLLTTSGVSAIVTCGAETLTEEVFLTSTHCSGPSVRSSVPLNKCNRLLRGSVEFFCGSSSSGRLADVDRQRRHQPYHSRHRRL

SMILES	Potency	max response, negative = inhibition
O=C(/C=C/c1cccc([N+](=O)[O-])c1)c1ccc2c(c1)OCCO2	inconclusive: 31.6 µM [inhibitor, single point]	–
Cn1cc(S(=O)(=O)N2CCCCCC2)cc1C(=O)N1CCN(c2cccc(C(F)(F)F)c2)CC1	inconclusive: 20 µM [activator, partial curve]	–
O=C(/C=C/c1ccc2c(c1)OCO2)c1c(O)n(CCC2=CCCCC2)c(=O)[nH]c1=O	inconclusive: 39.8 µM [inhibitor, single point]	–
COc1cccc(Nc2ncc3nc(-c4cccs4)c(=O)n(Cc4cccs4)c3n2)c1	active: 5.01 µM	–
N#Cc1c(Oc2ccc3ccccc3c2)sc(C(=O)c2ccccc2)c1N	active: 25.1 µM	–
CCCCCCCCCCCCCCCC(=O)O[C@H](CC(=O)O)C[N+](C)(C)C	inconclusive: 15.8 µM [activator, partial curve]	–
Cc1ccccc1CSCCNC(=O)c1ccc(Cl)c(S(=O)(=O)N2CCOCC2)c1	inconclusive: 39.8 µM [activator, single point]	–
CCOC(=O)Cn1nnnc1CN(Cc1ccc(OC)cc1)Cc1cc2cc(C)cc(C)c2[nH]c1=O	inconclusive: 25.1 µM [activator, single point]	–
COc1ccc(OC)c(CCNC(=O)c2cc3cccc4c3n2CC(C)S4)c1 (stereo not drawn)	–	inactive: -28.8%
CC(=O)N1CCc2cc(Br)cc(S(=O)(=O)N3CCCCCC3)c21	inconclusive: 31.6 µM [activator, single point]	–
COc1ccc(C(=O)Nn2c(SCc3ccc([N+](=O)[O-])cc3)nc3ccccc3c2=O)cc1	active: 31.6 µM	–
O=S(=O)(Nc1nc(-c2sccc2Cl)cs1)c1cc(Cl)ccc1Cl	inconclusive: 39.8 µM [inhibitor, single point]	–
CCCCCCCC1CC(/C(C)=N/NC(N)=O)OC1=O (stereo not drawn)	inconclusive: 39.8 µM [inhibitor, single point]	–
O=C(Nc1ccc(Cl)cc1)OCCN1CCN(Cc2ccccc2)CCC1=O	–	inactive: 6.85%
COc1ccc(S(=O)(=O)NCCc2nnc3ccc(SCC(=O)Nc4cc(C)cc(C)c4)nn23)cc1	inconclusive: 39.8 µM [activator, single point]	–
O=C(Nc1cccc(OCc2cc(=O)n3ccccc3n2)c1)c1ccccc1Br	–	inactive: -6.77%
Cc1ccc(-c2nc3c(c(SCC(=O)N(C)c4ccccc4)n2)Cc2c(CO)cnc(C)c2O3)cc1	inconclusive: 39.8 µM [activator, single point]	–
CCOc1ccc(N(CC(=O)NC2CCCC2)C(=O)CSc2nnc(COc3ccccc3)o2)cc1	inconclusive: 31.6 µM [activator, single point]	–
CCOC(=O)C(=O)NCC(c1cccnc1)N1CCN(c2ccccc2)CC1 (stereo not drawn)	–	inactive: 10.4%
O=C(CSCc1ccc(Cl)c(Cl)c1)Nc1c[nH]c(=O)[nH]c1=O	inconclusive: 39.8 µM [inhibitor, single point]	–
O=C1CC(c2ccccc2Cl)Cc2c1cnn2-c1nc2ccccc2s1 (stereo not drawn)	active: 12.6 µM	–
CC(C)(C)OC(=O)N1CCC(c2c(C(=O)Nc3ccc4c(c3)OCCO4)cnn2-c2ccc(F)cc2F)CC1	–	inactive: -5.59%

SMILES	Potency	max response, negative = inhibition
COc1ccc(N2CC(NC(=O)COc3ccc(F)cc3)CC2=O)cc1OC (stereo not drawn)	–	inactive: -10.2%
CCOc1ccc(N2C(=O)CS(=O)(=O)C23C(=O)N(Cc2cccc(Cl)c2)c2ccccc23)cc1 (stereo not drawn)	active: 10 µM	–
Cn1c(=O)c2c(nc(CN3CCN(c4ccccc4F)CC3)n2CCN2CCOCC2)n(C)c1=O	inconclusive: 31.6 µM [activator, single point]	–
CCOC(=O)c1c(C)[nH]c(C)c1S(=O)(=O)N(C)CC(=O)N1CCN(c2ccc(Cl)cc2)CC1	inconclusive: 25.1 µM [activator, partial curve]	–
COC(=O)C1=C(C)N=C2SCCC(=O)N2C1c1ccc(OCc2ccccc2)c(OC)c1 (stereo not drawn)	inconclusive: 39.8 µM [activator, single point]	–
CC(C)Cc1nc2oc3c(NCC4CCCO4)ncnc3c2c2c1CCC2 (stereo not drawn)	inconclusive: 31.6 µM [activator, single point]	–
COc1ccc2c(C)c(CCC(=O)NCc3ccc(C)cc3)c(=O)oc2c1	–	inactive: 0.236%
C=CCn1c(SCC(=O)N2CCCCC2)nc(O)cc1=O	–	inactive: -0.704%
CCn1c2ccccc2c2cc(NC(=O)C(C)Oc3ccc(OC)cc3)ccc21 (stereo not drawn)	active: 25.1 µM	–
COCCn1c(SCC(=O)Nc2ccc(S(=O)(=O)N3CCOCC3)cc2)nc2ccccc21	inconclusive: 31.6 µM [activator, single point]	–
Cc1ccc(CNC(=O)/C=C/c2ccc(S(=O)(=O)N3CCOCC3)cc2)cc1	inconclusive: 20 µM [activator, single point]	–
CC1=C(C(=O)Nc2cc(Cl)ccc2C)C2(CCCCC2)OC1=O	–	inactive: 1.32%
COc1ccc(C2CC(=O)N3CN(c4ccc(C)c(Cl)c4)CSC3=C2C#N)cc1 (stereo not drawn)	–	inactive: -16.7%
Cc1sc2nc(CSc3ccc([N+](=O)[O-])c(C(F)(F)F)c3)[nH]c(=O)c2c1C	inconclusive: 31.6 µM [inhibitor, single point]	–
Cn1c(CN2CCCCC2)nc2cc(NS(=O)(=O)c3ccc(Cl)cc3)ccc21	–	inactive: -1.9%
O=C(CNC(=O)c1ccc(Cl)cc1Cl)OCC(=O)c1ccc2c(c1)OCCO2	active: 3.16 µM	–
Cc1cc(C)n(-c2nc3nonc3nc2Nc2cccc(C)c2C)n1	inconclusive: 39.8 µM [inhibitor, single point]	–
CCc1nc2ccccc2n2c(-c3ccccc3)c3c(=O)n(C)c(=O)n(C)c3c12	–	inactive: -1.68%
CCOC(=O)C1=C(C)NC(=S)NC1c1ccc(OC(=O)c2ccco2)cc1 (stereo not drawn)	inconclusive: 39.8 µM [inhibitor, single point]	–
CCc1c(C)nc2nncn2c1Nc1ccc(Cl)cc1	–	inactive: -7.69%
Cc1cccc(CSc2nnc(NC(=O)CSc3nnc(C)s3)s2)c1	inconclusive: 31.6 µM [inhibitor, single point]	–
